Reference: patent publication US20240076343A1 (CEPHALON, published 2024)
Substitutions are numbered along the chain they refer to. Numbers in names are those of the source. One block for each binder: values may come before it.

Tests used:
Assay in all cases: cell-based or functional assay
[1] = target: T1, high-affinity hIL-2 receptor (IL-2Rαβγ) on NK-92 cells (human, UniProt P01589 22-272; P14784 27-551; P31785 23-369)
T1 sequence 1: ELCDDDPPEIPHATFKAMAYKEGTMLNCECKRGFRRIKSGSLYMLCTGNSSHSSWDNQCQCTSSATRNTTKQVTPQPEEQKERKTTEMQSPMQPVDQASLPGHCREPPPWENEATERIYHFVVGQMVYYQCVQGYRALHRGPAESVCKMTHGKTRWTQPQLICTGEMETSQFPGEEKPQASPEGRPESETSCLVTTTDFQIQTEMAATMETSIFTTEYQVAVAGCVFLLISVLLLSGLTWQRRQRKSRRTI
T1 sequence 2: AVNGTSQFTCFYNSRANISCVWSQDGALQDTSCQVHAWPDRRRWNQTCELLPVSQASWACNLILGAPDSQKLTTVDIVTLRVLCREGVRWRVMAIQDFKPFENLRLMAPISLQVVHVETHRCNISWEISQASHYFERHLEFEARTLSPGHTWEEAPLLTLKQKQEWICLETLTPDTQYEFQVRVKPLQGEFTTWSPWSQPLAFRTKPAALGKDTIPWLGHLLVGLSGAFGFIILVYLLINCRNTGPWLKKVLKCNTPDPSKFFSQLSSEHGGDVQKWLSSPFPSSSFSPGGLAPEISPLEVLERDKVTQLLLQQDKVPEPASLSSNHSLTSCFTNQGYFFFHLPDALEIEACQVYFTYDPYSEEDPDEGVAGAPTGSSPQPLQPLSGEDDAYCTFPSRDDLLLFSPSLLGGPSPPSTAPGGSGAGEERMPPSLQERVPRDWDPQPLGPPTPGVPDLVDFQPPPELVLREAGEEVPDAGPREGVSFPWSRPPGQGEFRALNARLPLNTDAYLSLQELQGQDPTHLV
T1 sequence 3: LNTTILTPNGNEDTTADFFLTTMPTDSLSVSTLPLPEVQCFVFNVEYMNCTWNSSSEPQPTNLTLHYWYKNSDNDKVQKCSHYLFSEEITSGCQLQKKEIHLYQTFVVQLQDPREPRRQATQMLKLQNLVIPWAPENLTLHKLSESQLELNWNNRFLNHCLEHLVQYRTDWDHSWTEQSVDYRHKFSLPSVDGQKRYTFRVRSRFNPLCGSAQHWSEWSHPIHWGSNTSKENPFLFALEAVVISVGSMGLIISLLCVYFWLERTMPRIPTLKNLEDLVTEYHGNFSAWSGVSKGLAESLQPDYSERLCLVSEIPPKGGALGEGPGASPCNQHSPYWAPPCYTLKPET

[2] = target: T2, intermediate-affinity hIL-2 receptor (IL-2Rβγ) on TF1+IL-2Rβ cells (human, UniProt P14784 27-551; P31785 23-369)
T2 sequence 1: T1 sequence 2
T2 sequence 2: T1 sequence 3

[3] = target: T2, intermediate-affinity hIL-2 receptor …; remark: listed apart in the source

B4: A2-hIgG4-df-hIL-2 (F42W/I92D) (other)
heavy: DVQLVESGGGLVQPGGSLRLSCAASGFTFDISAMSWVRQAPGKGLEWVSTISGSAYSTYYADSVKGRFTISRDNSKSTLYLQMNSLRAEDTAVYYCAREIFSDYWGLGTLVTVSSASTKGPSVFPLAPCSRSTSESTAALGCLVKDYFPEPVTVSWNSGALTSGVHTFPAVLQSSGLYSLSSVVTVPSSSLGTKTYTCNVDHKPSNTKVDKRV[not shown - about 350 residues with a human IgG4 Fc and changes]
light: QSVLTQPPSASGTPGQRVTISCSGSTSNIGRESVYWYQQLPGTAPKLLIYSNVQRPSGAPNRFSGSKSGTSASLAISGLQSEDEADYYCGTWDDSLNGWVFGGGTKLTVLGQPKAAPSVTLFPPSSEELQANKATLVCLISDFYPGAVTVAWKADSSPVKAGVETTTPSKQSNNKYAASSYLSLTPEQWKSHRSYSCQVTHEGSTVEKTVAPTECS
Fold change from rhIL-2 (NK-92) [1]: 1240 fold | Agonistic Activity (TF1 + IL-2Rβ) [2]: 50% | Fold change from rhIL-2 (TF1 + IL-2Rβ) [2]: ~4410 fold | Fold decrease from rhIL-2 (TF1 + IL-2Rβ + hPD-1) [3]: ~4 fold

B5: A2-hIgG4-df-hIL-2 (F42A/N88R) (other)
heavy: DVQLVESGGGLVQPGGSLRLSCAASGFTFDISAMSWVRQAPGKGLEWVSTISGSAYSTYYADSVKGRFTISRDNSKSTLYLQMNSLRAEDTAVYYCAREIFSDYWGLGTLVTVSSASTKGPSVFPLAPCSRSTSESTAALGCLVKDYFPEPVTVSWNSGALTSGVHTFPAVLQSSGLYSLSSVVTVPSSSLGTKTYTCNVDHKPSNTKVDKRV[not shown - about 350 residues with a human IgG4 Fc and changes]
light: B4 light
Fold change from rhIL-2 (NK-92) [1]: 6420 fold | Agonistic Activity (TF1 + IL-2Rβ) [2]: 90% | Fold change from rhIL-2 (TF1 + IL-2Rβ) [2]: ~3760 fold | Fold decrease from rhIL-2 (TF1 + IL-2Rβ + hPD-1) [3]: ~0 fold

B6: A2-hIgG4-df-hIL-2 (D20A/F42A) (other)
heavy: DVQLVESGGGLVQPGGSLRLSCAASGFTFDISAMSWVRQAPGKGLEWVSTISGSAYSTYYADSVKGRFTISRDNSKSTLYLQMNSLRAEDTAVYYCAREIFSDYWGLGTLVTVSSASTKGPSVFPLAPCSRSTSESTAALGCLVKDYFPEPVTVSWNSGALTSGVHTFPAVLQSSGLYSLSSVVTVPSSSLGTKTYTCNVDHKPSNTKVDKRV[not shown - about 350 residues with a human IgG4 Fc and changes]
light: B4 light
Fold change from rhIL-2 (NK-92) [1]: 284 fold | Agonistic Activity (TF1 + IL-2Rβ) [2]: 80% | Fold change from rhIL-2 (TF1 + IL-2Rβ) [2]: ~4320 fold | Fold decrease from rhIL-2 (TF1 + IL-2Rβ + hPD-1) [3]: ~2 fold

More lines, now with the values ahead:

Agonistic Activity (NK-92) [1]: 70% | Fold change from rhIL-2 (NK-92) [1]: > 10000 fold | Fold change from rhIL-2 (TF1 + IL-2Rβ) [2]: 1620 fold | Fold decrease from rhIL-2 (TF1 + IL-2Rβ + hPD-1) [3]: ~2 fold
B1: OMC476pE4-hIgG4-df-hIL-2 (D20A/R38E) (other)
heavy: DVQLVESGGGVVRPGESLRLSCAASGFTFSTDAMGWVRQAPGEGLEWVSLISGSGYSTYYADSVKGRFTISRDNSKNTLYLQMNSLTAEDTAVYYCAKNSLAFFDYWGLGTLVTVSSASTKGPSVFPLAPCSRSTSESTAALGCLVKDYFPEPVTVSWNSGALTSGVHTFPAVLQSSGLYSLSSVVTVPSSSLGTKTYTCNVDHKPSNTKVDKRV[not shown - about 350 residues with a human IgG4 Fc]
light: B4 light with S25G, T26S, Y35N, N52T, V53D, Q54R, A59V, N61D, D94N, S95D

Agonistic Activity (NK-92) [1]: 70% | Fold change from rhIL-2 (NK-92) [1]: > 10000 fold | Agonistic Activity (TF1 + IL-2Rβ) [2]: 80% | Fold change from rhIL-2 (TF1 + IL-2Rβ) [2]: ~3560 fold | Fold decrease from rhIL-2 (TF1 + IL-2Rβ + hPD-1) [3]: ~1 fold
B2: OMC476pH10-hIgG4-df-hIL-2 (D20A/R38E) (other)
heavy: DVQLVESGGGVVRPGGSLRLSCAASGFTFSIYAVSWVRQAPGEGLEWVSHISASGGSTYYADSVKGRFAISRDNSKNTLYLQMNSLRAEDTAVYYCTTNLGSDYWGLGTLVTVSSASTKGPSVFPLAPCSRSTSESTAALGCLVKDYFPEPVTVSWNSGALTSGVHTFPAVLQSSGLYSLSSVVTVPSSSLGTKTYTCNVDHKPSNTKVDKRV[not shown - about 350 residues with a human IgG4 Fc]
light: QSVLTQPPSASGTPGQRVTISCSGSYSDIGTNYVYWYQQLPGTAPKLLIFATDRRPSGVPDRFSGSKSGTSASLAISGLQSEDEADYYCGTWDDSLNVWVFGGGTKLTVLGQPKAAPSVTLFPPSSEELQANKATLVCLISDFYPGAVTVAWKADSSPVKAGVETTTPSKQSNNKYAASSYLSLTPEQWKSHRSYSCQVTHEGSTVEKTVAPTECS

Agonistic Activity (NK-92) [1]: 70% | Fold change from rhIL-2 (NK-92) [1]: > 10000 fold | Fold change from rhIL-2 (TF1 + IL-2Rβ) [2]: 36 fold | Fold decrease from rhIL-2 (TF1 + IL-2Rβ + hPD-1) [3]: ~0 fold
B3: OMC476pB11-hIgG4-df-hIL-2 (D20A/R38E) (other)
heavy: DVQLVESGGGVVRPGESLRLSCTASGFTFSISAMSWVRQAPGKGLEWVSAISGTAYSTYYADSVRGRFTISRDNSKNTLYLQMNSLRAEDTAVYYCAKDNFFDYWGLGTLVTVSSASTKGPSVFPLAPCSRSTSESTAALGCLVKDYFPEPVTVSWNSGALTSGVHTFPAVLQSSGLYSLSSVVTVPSSSLGTKTYTCNVDHKPSNTKVDKRV[not shown - about 350 residues with a human IgG4 Fc]
light: B4 light with L4M, S25V, R31S, E32N, S51L, V53S, A59V, N61D
